Data taken from PubChem BioAssay (NCI).
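Method: 48-hour compound exposure of cells in 96-well plates, five concentrations, linear interpolation of endpoints. GI50 marks 50% less growth. The concentration for full growth arrest is given as TGI.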

Tested on: NCI-H322M lung
Experiment: NCI-60 cell line screen, 48 h

In the case of COc1cc(CNC(=O)/C=C/c2ccc3c(c2)OCO3)ccc1OCc1cn(-c2cccc(C(F)(F)F)c2)nn1, the GI50 is reported as 9.69 µM and the TGI is reported as 26.8 µM.
